From the supplement of paper PMC12645437, “Orthogonal IMiD-Degron Pairs Induce Selective Protein Degradation in Cells” (ACS Chemical Biology, 2025)
The list shows a part of the results.

Molecular target: no compound (DMSO)
Assay: log2 fold change of degron read counts, EGFP-low vs EGFP+ sorted cells; higher = lower degron-EGFP level without compound (poor expression or instability)
Details: compound: DMSO control; 18 h
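Note: jurkat cells carrying a lentiviral library of mutant zinc finger degrons fused to EGFP plus mCherry, mCherry+ cells FACS sorted, degron abundance counted by next-generation sequencing.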

Row | Sequence | log2 fold change of degron read counts
1 | FGCEQCGAIFTQKGNLLRHIKL | -0.777
2 | FACNICGAHFTQKGNLLRHIKL | -0.107
3 | FWCNICGAPFTQKGNLLRHIKL | 0.95
4 | FQCNQCGRHFTQKGNLLRHIKL | -0.376
5 | FHCDVCGAYFTQKGNLLRHIKL | -0.888
6 | FSCNICGAAFTQKGNLLRHIKL | -0.172
7 | FSCDICGAPFTQKGNLLRHIKL | -0.165
8 | FCCNQCGRHFTQKGNLLRHIKL | 0.101
9 | FDCEICGRQFTQKGNLLRHIKL | -1.82
10 | FACNQCGHPFTQKGNLLRHIKL | 0.257
11 | FECNVCGAYFTQKGNLLRHIKL | -0.381
12 | FLCNQCGACFTQKGNLLRHIKL | -0.477
13 | FICDICGAAFTQKGNLLRHIKL | -1.74
14 | FSCSVCGHPFTQKGNLLRHIKL | -0.0974
15 | FLCNICGAHFTQKGNLLRHIKL | -0.0712
16 | FACSVCGHFFTQKGNLLRHIKL | 0.412

Row | Sequence | log2 fold change of degron read counts
17 | FHCNQCGAAFTQKGNLLRHIKL | -0.678
18 | FNCNQCGRNFTQKGNLLRHIKL | -0.221
19 | FLCEICGRTFTQKGNLLRHIKL | -1.8
20 | FHCPICGHPFTQKGNLLRHIKL | -0.15
21 | LECPICGFYCTQKGNLLRHIKL | 0.678
22 | FACPQCGAWFTQKGNLLRHIKL | 0.142
23 | FLCPVCGAWFTQKGNLLRHIKL | 1.68
24 | FDCNQCGHIFTQKGNLLRHIKL | 0.909
25 | FNCEQCGAAFTQKGNLLRHIKL | -0.803
26 | FLCPVCGAHFTQKGNLLRHIKL | -0.0365
27 | FRCNQCGHYFTQKGNLLRHIKL | 0.218
28 | FECEVCGASFTQKGNLLRHIKL | -1.99
29 | LECPICGFNCTQKGNLLRHIKL | 0.338
30 | FMCEICGRDFTQKGNLLRHIKL | -1.6
31 | FACPVCGARFTQKGNLLRHIKL | -0.0127
32 | FHCEICGHSFTQKGNLLRHIKL | -1.35
